Laboratory results taken from the supplement of paper PMC4967469.
A lower IC50 marks a more sensitive line; fits outside the tested doses are given as limits. The AUC spans the tested range (256-fold, ending at the top dose) of the same fit: 1 means no effect, lower means more sensitive. For part of these data: An inferred top dose comes from the curve model; the source does not state it.

Key:
Assay in all cases: Viability of human cancer cell lines after 72 h of drug (GDSC screen)
XMD15-27 = compound: C=CC(=O)Nc1ccc(C(=O)c2sc(Nc3ccc(N4CCN(C)CC4)cc3OC)nc2N)cc1 [XMD15-27]; conditions: top dose 10.24 µM; top dose inferred
Protocol: (§1)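 Human cancer cell lines in 384-well plates, medium with 10% serum, drug for 72 h over a 256-fold dose range (nine 2-fold or five 4-fold steps up to the top dose). Adherent lines were fixed and stained with the nucleic acid dye Syto60, suspension lines read with resazurin; signal relative to control wells, capped at 0 and 100%. One two-parameter sigmoid per drug and line, fitted in a mixed model over all curves with the slope shared within a line.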

Temsirolimus = compound: CO[C@H]1C[C@@H]2CC[C@@H](C)[C@@](O)(O2)C(=O)C(=O)N2CCCC[C@H]2C(=O)O[C@H]([C@H](C)C[C@@H]2CC[C@@H](OC(=O)C(C)(CO)CO)[C@H](OC)C2)CC(=O)[C@H](C)/C=C(\C)[C@@H](O)[C@@H](OC)C(=O)[C@H](C)C[C@H](C)/C=C/C=C/C=C/1C [Temsirolimus]; conditions: top dose 0.2 µM
Protocol: as §1

SL 0101-1 = compound: CC(=O)O[C@@H]1[C@@H](OC(C)=O)[C@@H](O)[C@H](Oc2c(-c3ccc(O)cc3)oc3cc(O)cc(O)c3c2=O)O[C@H]1C [SL 0101-1]; conditions: top dose 10 µM; top dose inferred
Protocol: as §1

Cell Line	AUC (XMD15-27)	IC50 (XMD15-27)	AUC (Temsirolimus)	IC50 (Temsirolimus)	AUC (SL 0101-1)	IC50 (SL 0101-1)
NCI-H1876 (small cell lung carcinoma, adherent)	0.987	> 10.2 µM	0.937	> 0.2 µM	0.987	> 10 µM
NCI-H1944 (lung adenocarcinoma, adherent)	0.968	> 10.2 µM	0.773	0.0833 µM	0.985	> 10 µM
NCI-H1975 (lung adenocarcinoma, adherent)	0.964	> 10.2 µM	0.733	0.0647 µM	0.983	> 10 µM
NCI-H1993 (lung adenocarcinoma, adherent)	0.983	> 10.2 µM	0.976	> 0.2 µM	0.982	> 10 µM
NCI-H2023 (lung adenocarcinoma, adherent)	0.979	> 10.2 µM	0.799	0.125 µM	0.944	> 10 µM
NCI-H2052 (mesothelioma, adherent)	0.958	> 10.2 µM	0.96	> 0.2 µM	0.982	> 10 µM
NCI-H2081 (small cell lung carcinoma, suspension)	0.985	> 10.2 µM	0.902	> 0.2 µM	0.987	> 10 µM
NCI-H2087 (lung adenocarcinoma, semi-adherent)	0.976	> 10.2 µM	0.957	> 0.2 µM	0.975	> 10 µM
NCI-H2110 (non-small cell lung carcinoma, adherent)	0.98	> 10.2 µM	0.874	> 0.2 µM	0.961	> 10 µM
NCI-H2135 (non-small cell lung carcinoma, adherent)	0.971	> 10.2 µM	0.991	> 0.2 µM	0.99	> 10 µM
NCI-H2141 (small cell lung carcinoma, suspension)	0.989	> 10.2 µM	0.985	> 0.2 µM	0.99	> 10 µM
NCI-H2172 (non-small cell lung carcinoma, adherent)	0.982	> 10.2 µM	0.945	> 0.2 µM	0.98	> 10 µM
NCI-H2227 (small cell lung carcinoma, semi-adherent)	0.986	> 10.2 µM	0.936	> 0.2 µM	0.986	> 10 µM
NCI-H2291 (lung adenocarcinoma, adherent)	0.984	> 10.2 µM	0.899	> 0.2 µM	0.964	> 10 µM
NCI-H2342 (lung adenocarcinoma, adherent)	0.986	> 10.2 µM	0.874	> 0.2 µM	0.986	> 10 µM
NCI-H2347 (lung adenocarcinoma, adherent)	0.983	> 10.2 µM	0.946	> 0.2 µM	0.98	> 10 µM
NCI-H2405 (lung adenocarcinoma, adherent)	0.986	> 10.2 µM	0.969	> 0.2 µM	0.979	> 10 µM
NCI-H2444 (non-small cell lung carcinoma, adherent)	0.988	> 10.2 µM	0.902	> 0.2 µM	0.988	> 10 µM
NCI-H2452 (mesothelioma, adherent)	0.984	> 10.2 µM	0.83	0.161 µM	0.962	> 10 µM
NCI-H3122 (lung adenocarcinoma, adherent)	0.952	> 10.2 µM	0.847	0.153 µM	0.982	> 10 µM
NCI-SNU-1 (stomach, suspension)	0.942	> 10.2 µM	0.976	> 0.2 µM	0.972	> 10 µM
NCI-SNU-5 (stomach, suspension)	0.989	> 10.2 µM	0.667	0.0366 µM	0.989	> 10 µM
NCI-SNU-16 (stomach, suspension)	0.991	> 10.2 µM	0.985	> 0.2 µM	0.968	> 10 µM
NEC8 (testis, adherent)	0.991	> 10.2 µM	0.972	> 0.2 µM	0.981	> 10 µM

Cell Line	AUC (XMD15-27)	IC50 (XMD15-27)	AUC (Temsirolimus)	IC50 (Temsirolimus)	AUC (SL 0101-1)	IC50 (SL 0101-1)
NH-12 (neuroblastoma, adherent)	0.984	> 10.2 µM	0.848	0.177 µM	0.966	> 10 µM
NKM-1 (acute myeloid leukaemia, suspension)	0.89	> 10.2 µM	0.832	0.133 µM	0.982	> 10 µM
NMC-G1 (glioma, adherent)	0.957	> 10.2 µM	0.717	0.0602 µM	0.958	> 10 µM
NOMO-1 (acute myeloid leukaemia, suspension)	0.981	> 10.2 µM	0.709	0.0531 µM	0.916	> 10 µM
NOS-1 (osteosarcoma, adherent)	0.878	> 10.2 µM	0.815	0.143 µM	0.973	> 10 µM
NU-DUL-1 (B-cell lymphoma, suspension)	0.955	> 10.2 µM	0.436	0.00867 µM	0.966	> 10 µM
NUGC-4 (stomach, adherent)	0.987	> 10.2 µM	0.906	> 0.2 µM	0.988	> 10 µM
NY (osteosarcoma, adherent)	0.989	> 10.2 µM	0.911	> 0.2 µM	0.982	> 10 µM
OACM5-1 (oesophagus, semi-adherent)	0.883	> 10.2 µM	0.959	> 0.2 µM	0.971	> 10 µM
OACp4C (oesophagus, adherent)	0.919	> 10.2 µM	0.792	0.111 µM	0.982	> 10 µM
OAW-42 (ovary, adherent)	0.985	> 10.2 µM	0.854	0.179 µM	0.984	> 10 µM
OC-314 (ovary, adherent)	0.986	> 10.2 µM	0.88	0.157 µM	0.988	> 10 µM
OCI-AML2 (acute myeloid leukaemia, suspension)	0.994	> 10.2 µM	0.993	> 0.2 µM	0.995	> 10 µM
OCI-AML3 (acute myeloid leukaemia, suspension)	0.974	> 10.2 µM	0.985	> 0.2 µM	0.984	> 10 µM
OCI-AML5 (acute myeloid leukaemia, suspension)	0.97	> 10.2 µM	0.96	> 0.2 µM	0.989	> 10 µM
OCI-LY-19 (B-cell lymphoma, suspension)	0.944	> 10.2 µM	0.935	> 0.2 µM	0.988	> 10 µM
OCI-M1 (acute myeloid leukaemia, suspension)	0.994	> 10.2 µM	0.988	> 0.2 µM	0.994	> 10 µM
OCUB-M (breast, adherent)	0.952	> 10.2 µM	0.831	0.104 µM	0.927	> 10 µM
OCUM-1 (stomach, adherent)	0.987	> 10.2 µM	0.883	> 0.2 µM	0.987	> 10 µM
OE19 (oesophagus, adherent)	0.985	> 10.2 µM	0.912	> 0.2 µM	0.985	> 10 µM
OE21 (oesophagus, adherent)	0.977	> 10.2 µM	0.645	0.0368 µM	0.969	> 10 µM
OE33 (oesophagus, adherent)	0.983	> 10.2 µM	0.813	0.134 µM	0.94	> 10 µM
ONS-76 (medulloblastoma, adherent)	0.953	> 10.2 µM	0.587	0.0221 µM	0.983	> 10 µM
OPM-2 (myeloma, suspension)	0.983	> 10.2 µM	0.949	> 0.2 µM	0.993	> 10 µM

Cell Line	AUC (XMD15-27)	IC50 (XMD15-27)	AUC (Temsirolimus)	IC50 (Temsirolimus)	AUC (SL 0101-1)	IC50 (SL 0101-1)
OS-RC-2 (kidney, adherent)	0.976	> 10.2 µM	0.533	0.016 µM	0.9	> 10 µM
OSC-20 (head and neck, adherent)	0.975	> 10.2 µM	0.862	> 0.2 µM	0.957	> 10 µM
OV-7 (ovary, adherent)	0.967	> 10.2 µM	0.763	0.11 µM	0.964	> 10 µM
OV-17R (ovary, adherent)	0.981	> 10.2 µM	0.933	> 0.2 µM	0.981	> 10 µM
OV-56 (ovary, adherent)	0.988	> 10.2 µM	0.594	0.0224 µM	0.988	> 10 µM
OV-90 (ovary, adherent)	0.982	> 10.2 µM	0.526	0.015 µM	0.98	> 10 µM
OVCA420 (ovary, adherent)	0.982	> 10.2 µM	0.904	> 0.2 µM	0.982	> 10 µM
OVCA433 (ovary, adherent)	0.984	> 10.2 µM	0.719	0.0565 µM	0.982	> 10 µM
OVCAR-4 (ovary, adherent)	0.974	> 10.2 µM	0.783	0.132 µM	0.97	> 10 µM
OVCAR-5 (ovary, adherent)	0.982	> 10.2 µM	0.717	0.0593 µM	0.982	> 10 µM
OVCAR-8 (ovary, adherent)	0.99	> 10.2 µM	0.749	0.0588 µM	0.96	> 10 µM
OVISE (ovary, adherent)	0.977	> 10.2 µM	0.731	0.072 µM	0.948	> 10 µM
OVK-18 (ovary, adherent)	0.961	> 10.2 µM	0.264	0.00244 µM	0.974	> 10 µM
OVKATE (ovary, adherent)	0.979	> 10.2 µM	0.844	> 0.2 µM	0.979	> 10 µM
OVMIU (ovary, adherent)	0.976	> 10.2 µM	0.963	> 0.2 µM	0.95	> 10 µM
OVTOKO (ovary, adherent)	0.968	> 10.2 µM	0.625	0.0304 µM	0.963	> 10 µM
P12-ICHIKAWA (T-cell lymphoblastic leukaemia, suspension)	0.985	> 10.2 µM	0.994	> 0.2 µM	0.994	> 10 µM
P30-OHK (lymphoblastic leukaemia, suspension)	0.958	> 10.2 µM	0.881	0.149 µM	0.991	> 10 µM
P31-FUJ (acute myeloid leukaemia, suspension)	0.995	> 10.2 µM	0.985	> 0.2 µM	0.996	> 10 µM
P32-ISH (Burkitt lymphoma, suspension)	0.973	> 10.2 µM	0.934	0.197 µM	0.993	> 10 µM
PA-TU-8902 (pancreas, adherent)	0.984	> 10.2 µM	0.807	0.124 µM	0.977	> 10 µM
PANC-02-03 (pancreas, adherent)	0.981	> 10.2 µM	0.825	0.154 µM	0.973	> 10 µM
PANC-03-27 (pancreas, adherent)	0.989	> 10.2 µM	0.952	> 0.2 µM	0.979	> 10 µM
